# Residue numbers refer to the chain shown, from its start. This is one part of the list.
# B1: GGAUACA (DNA:RNA)
# RNA: GGGAGACCGGAAUUCAGAUUGUCCGGAUACAUUAAAUCCCGUCGUAGCCACCA
# DNA 1: CAATCTGAATTCCGGTCTCCC
# DNA 2: TGGTGGCTACGACGGGATT
# B2: UCUUGGC (DNA:RNA)
# RNA: B1 RNA with G25U, G26C, A27U, A29G, C30G, A31C
# DNA 1: CAATCTGAATTCCGGTCTCCC
# DNA 2: TGGTGGCTACGACGGGATT
# B3: UGGAAAA (DNA:RNA)
# RNA: B1 RNA with G25U, A27G, U28A, C30A
# DNA 1: CAATCTGAATTCCGGTCTCCC
# DNA 2: TGGTGGCTACGACGGGATT
# B4: GAUACAU (DNA:RNA)
# RNA: B1 RNA with G26A, A27U, U28A, A29C, C30A, A31U
# DNA 1: CAATCTGAATTCCGGTCTCCC
# DNA 2: TGGTGGCTACGACGGGATT
# B5: ACACAGG (DNA:RNA)
# RNA: B1 RNA with G25A, G26C, U28C, C30G, A31G
# DNA 1: CAATCTGAATTCCGGTCTCCC
# DNA 2: TGGTGGCTACGACGGGATT
# B6: UCGUCCC (DNA:RNA)
# RNA: B1 RNA with G25U, G26C, A27G, A29C, A31C
# DNA 1: CAATCTGAATTCCGGTCTCCC
# DNA 2: TGGTGGCTACGACGGGATT
# B7: GCAGGUG (DNA:RNA)
# RNA: B1 RNA with G26C, U28G, A29G, C30U, A31G
# DNA 1: CAATCTGAATTCCGGTCTCCC
# DNA 2: TGGTGGCTACGACGGGATT
# B8: GGAUGUG (DNA:RNA)
# RNA: B1 RNA with A29G, C30U, A31G
# DNA 1: CAATCTGAATTCCGGTCTCCC
# DNA 2: TGGTGGCTACGACGGGATT
# B9: GGAGAUG (DNA:RNA)
# RNA: B1 RNA with U28G, C30U, A31G
# DNA 1: CAATCTGAATTCCGGTCTCCC
# DNA 2: TGGTGGCTACGACGGGATT
# B10: CCCGCAU (DNA:RNA)
# RNA: GGGAGACCGGAAUUCAGAUUGUCCCCCGCAUUUAAAUCCCGUCGUAGCCACCA
# DNA 1: CAATCTGAATTCCGGTCTCCC
# DNA 2: TGGTGGCTACGACGGGATT
# B11: UGUCGCG (DNA:RNA)
# RNA: B1 RNA with G25U, A27U, U28C, A29G, A31G
# DNA 1: CAATCTGAATTCCGGTCTCCC
# DNA 2: TGGTGGCTACGACGGGATT
# B12: CUCGGCU (DNA:RNA)
# RNA: B10 RNA with C26U, C29G, A30C
# DNA 1: CAATCTGAATTCCGGTCTCCC
# DNA 2: TGGTGGCTACGACGGGATT
# B13: CCUUUGU (DNA:RNA)
# RNA: B10 RNA with C27U, G28U, C29U, A30G
# DNA 1: CAATCTGAATTCCGGTCTCCC
# DNA 2: TGGTGGCTACGACGGGATT
# B14: UGAUAAA (DNA:RNA)
# RNA: B1 RNA with G25U, C30A
# DNA 1: CAATCTGAATTCCGGTCTCCC
# DNA 2: TGGTGGCTACGACGGGATT
# B15: CCACUAA (DNA:RNA)
# RNA: B10 RNA with C27A, G28C, C29U, U31A
# DNA 1: CAATCTGAATTCCGGTCTCCC
# DNA 2: TGGTGGCTACGACGGGATT
# B16: UAGAGGC (DNA:RNA)
# RNA: GGGAGACCGGAAUUCAGAUUGUCCUAGAGGCUUAAAUCCCGUCGUAGCCACCA
# DNA 1: CAATCTGAATTCCGGTCTCCC
# DNA 2: TGGTGGCTACGACGGGATT
# B17: GCCCUGU (DNA:RNA)
# RNA: B10 RNA with C25G, G28C, C29U, A30G
# DNA 1: CAATCTGAATTCCGGTCTCCC
# DNA 2: TGGTGGCTACGACGGGATT
# B18: GACUAUC (DNA:RNA)
# RNA: B1 RNA with G26A, A27C, C30U, A31C
# DNA 1: CAATCTGAATTCCGGTCTCCC
# DNA 2: TGGTGGCTACGACGGGATT
# B19: ACUGACC (DNA:RNA)
# RNA: B10 RNA with C25A, C27U, C29A, A30C, U31C
# DNA 1: CAATCTGAATTCCGGTCTCCC
# DNA 2: TGGTGGCTACGACGGGATT
# B20: GAGACUA (DNA:RNA)
# RNA: B16 RNA with U25G, G29C, G30U, C31A
# DNA 1: CAATCTGAATTCCGGTCTCCC
# DNA 2: TGGTGGCTACGACGGGATT
# Target: T1, RBFOX1 RRM (Homo sapiens, UniProt Q9NWB1 109-208)
# T1 sequence: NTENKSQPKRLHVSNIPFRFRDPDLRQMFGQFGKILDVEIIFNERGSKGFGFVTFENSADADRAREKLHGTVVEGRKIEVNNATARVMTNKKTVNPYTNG
# Assay: EMSA; HiTS-Eq, 1 nM pool, 10 min; buffer printed only for the single-RNA assays: 10 mM Tris pH 7.5, 150 mM NaCl, 3.4 mM EDTA, 0.001% NP-40, 30 C
# Settings: tags: His6 N-terminal (pET28a); label: 5' 32P
# Outline: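 Relative association constants, normalised to the cognate motif, were derived by comparing read counts of each RNA species with those of the control reaction. The RNA sequenced was the free fraction, separated by 8% native PAGE after a 10 min equilibration in 50 µL of 1 nM 5′-radiolabelled RNA (7 randomized nucleotides) with increasing concentrations of purified wild-type or mutant RbFox RRM.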
row,Binder,binding signal
1,B1,0.00766 KA relative to UGCAUGU
2,B2,0.0154 KA relative to UGCAUGU
3,B3,0.0179 KA relative to UGCAUGU
4,B4,0.00572 KA relative to UGCAUGU
5,B5,0.00611 KA relative to UGCAUGU
6,B6,0.00735 KA relative to UGCAUGU
7,B7,0.0171 KA relative to UGCAUGU
8,B8,0.0207 KA relative to UGCAUGU
9,B9,0.0269 KA relative to UGCAUGU
10,B10,0.00786 KA relative to UGCAUGU
11,B11,0.0202 KA relative to UGCAUGU
12,B12,0.0125 KA relative to UGCAUGU
13,B13,0.0184 KA relative to UGCAUGU
14,B14,0.00742 KA relative to UGCAUGU
15,B15,0.00109 KA relative to UGCAUGU
16,B16,0.00808 KA relative to UGCAUGU
17,B17,0.0153 KA relative to UGCAUGU
18,B18,0.00429 KA relative to UGCAUGU
19,B19,0.0049 KA relative to UGCAUGU
20,B20,0.00483 KA relative to UGCAUGU

# Source: article PMC9911399, “Two distinct binding modes provide the RNA-binding protein RbFox with extraordinary sequence specificity”
